Measured values taken from patent US11472865B2, “IgG-binding peptide, and specific modification of antibody with said peptide” (priority 2017, dated 2022).

Biological target: T1, Human IgG1 (Trastuzumab) (Homo sapiens, UniProt P01857)
T1 construct: purchased Chugai Pharmaceutical Co., Ltd
Test: Labeling of antibody with SG-modified peptide reagent, confirmed by SDS-PAGE (modification efficiency)
Format: biochemical
Settings: Trastuzumab 10 μM, SG peptide 200 μM, acetate buffer pH 5.5, room temperature

T1 sequence (P01857 1-330 isoform P01857-1, other chains not shown): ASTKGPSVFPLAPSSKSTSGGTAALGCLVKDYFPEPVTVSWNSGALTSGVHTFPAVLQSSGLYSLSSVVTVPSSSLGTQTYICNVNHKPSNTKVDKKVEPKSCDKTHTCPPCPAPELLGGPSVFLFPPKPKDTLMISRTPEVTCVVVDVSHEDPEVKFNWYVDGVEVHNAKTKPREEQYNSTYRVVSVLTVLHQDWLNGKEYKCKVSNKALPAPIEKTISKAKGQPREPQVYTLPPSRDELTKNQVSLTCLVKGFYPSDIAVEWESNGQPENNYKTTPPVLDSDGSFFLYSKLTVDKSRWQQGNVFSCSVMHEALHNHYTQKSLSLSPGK

FNMQQQRRFYEALHDPNLNEEQRNARIRSIRDD [Peptide Z33]
IgG1 modification efficiency (yield) after 30 minutes: almost the same efficiency as αZ34C and εZ34C
